From the supplement of paper PMC6089552
Out of some 3,200 compounds screened, about 300 (9.4%) showed activity. The entries are a selection whose mix differs from that of the whole data set.

Tested on: A673/TR/shEF
Test: cell viability (LOESS-normalised, relative to median of negative controls) (log2 ratio); higher = more viable cells (less compound effect), active = hit call of the paper (over 3 MAD below the median)
Settings: treatment time: 72 h
Summary of the method: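 A673/TR/shEF Ewing sarcoma cells were plated at 1,500 per well in 384-well plates and cultured with or without doxycycline, added 24 h before compounds, to induce EWS-FLI1 shRNA knockdown. Library compounds at two or more concentrations, alongside DMSO controls, were applied for three days. Cell viability was measured by CellTiter-Glo luminescence on an Envision reader. Readings were LOESS-corrected per plate, divided by the median of negative controls and log2-transformed, and hits were wells lying at least three median absolute deviations from the median of all screened wells.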

[1] = 0.25 µM, library screen: screen1, EWS-FLI1 expression: high (no doxycycline)
[2] = 0.25 µM, library screen: screen1, EWS-FLI1 expression: low (doxycycline-induced shRNA knockdown)
[3] = 2.5 µM, library screen: screen1, EWS-FLI1 expression: high (no doxycycline)
[4] = 2.5 µM, library screen: screen1, EWS-FLI1 expression: low (doxycycline-induced shRNA knockdown)
[5] = 0.103 µM, library screen: screen3, EWS-FLI1 expression: high (no doxycycline)
[6] = 0.103 µM, library screen: screen3, EWS-FLI1 expression: low (doxycycline-induced shRNA knockdown)
[7] = 0.25 µM, library screen: screen2, EWS-FLI1 expression: high (no doxycycline)
[8] = 0.25 µM, library screen: screen2, EWS-FLI1 expression: low (doxycycline-induced shRNA knockdown)
[9] = 0.308 µM, library screen: screen3, EWS-FLI1 expression: high (no doxycycline)
[10] = 0.308 µM, library screen: screen3, EWS-FLI1 expression: low (doxycycline-induced shRNA knockdown)
[11] = 0.926 µM, library screen: screen3, EWS-FLI1 expression: high (no doxycycline)
[12] = 0.926 µM, library screen: screen3, EWS-FLI1 expression: low (doxycycline-induced shRNA knockdown)
[13] = 2.5 µM, library screen: screen2, EWS-FLI1 expression: high (no doxycycline)
[14] = 2.5 µM, library screen: screen2, EWS-FLI1 expression: low (doxycycline-induced shRNA knockdown)
[15] = 2.8 µM, library screen: screen3, EWS-FLI1 expression: high (no doxycycline)
[16] = 2.8 µM, library screen: screen3, EWS-FLI1 expression: low (doxycycline-induced shRNA knockdown)
[17] = 8.3 µM, library screen: screen3, EWS-FLI1 expression: high (no doxycycline)
[18] = 8.3 µM, library screen: screen3, EWS-FLI1 expression: low (doxycycline-induced shRNA knockdown)
[19] = 25 µM, library screen: screen3, EWS-FLI1 expression: high (no doxycycline)
[20] = 25 µM, library screen: screen3, EWS-FLI1 expression: low (doxycycline-induced shRNA knockdown)

Measured: cell viability (log2)

Fc1ccc([C@@H]2CCNC[C@H]2COc2ccc3c(c2)OCO3)cc1
inactive: [1] 0.145 | [2] 0.103 | [3] 0.0979 | [4] 0.0302

N.N.O=C(O)C1(C(=O)O)CCC1.[Pt]
inactive: 0.025 µM, library screen: screen2, EWS-FLI1 expression: high (no doxycycline) 0.126 | 0.025 µM, library screen: screen2, EWS-FLI1 expression: low (doxycycline-induced shRNA knockdown) 0.0588 | [5] 0.0499 | [6] 0.0607 | [1] 0.0824 | [2] 0.145 | [7] 0.156 | [8] 0.113 | [9] 0.115 | [10] 0.0467 | [11] 0.0942 | [12] 0.0721 | [3] 0.157 | [4] 0.15 | [13] 0.122 | [14] 0.131 | [15] 0.0295 | [16] 0.0687 | [17] 0.0127 | [18] 0.0866 | 25 µM, library screen: screen2, EWS-FLI1 expression: high (no doxycycline) -0.0691 | 25 µM, library screen: screen2, EWS-FLI1 expression: low (doxycycline-induced shRNA knockdown) 0.0246 | [19] -0.00625 | [20] -0.0105

CN(C)CCCN1c2ccccc2CCc2ccccc21
inactive: [1] 0.0475 | [2] -0.0015 | [7] 0.172 | [8] 0.114 | [3] 0.11 | [4] 0.0877 | [13] 0.106 | [14] 0.0621

C[C@H]1COc2c(N3CCN(C)CC3)c(F)cc3c(=O)c(C(=O)O)cn1c23
inactive: [5] 0.206 | [6] 0.0437 | [1] 0.0988 | [2] 0.0882 | [9] 0.127 | [10] 0.148 | [11] 0.119 | [12] 0.164 | [3] 0.147 | [4] 0.106 | [15] 0.0698 | [16] 0.187 | [17] 0.139 | [18] 0.0478 | [19] 0.0912 | [20] 0.153

NC(CO)C(=O)NNCc1ccc(O)c(O)c1O (stereo not drawn)
inactive: [5] 0.0508 | [6] 0.0252 | [1] 0.0934 | [2] 0.0515 | [7] 0.129 | [8] 0.0766 | [9] 0.178 | [10] 0.129 | [11] 0.092 | [12] 0.101 | [3] 0.121 | [4] 0.123 | [13] 0.0791 | [14] 0.129 | [15] 0.149 | [16] 0.0604 | [17] 0.0495 | [18] 0.0533 | [19] 0.0796 | [20] 0.0404

NC1(C(=O)O)CCc2cc(C(=O)O)ccc21 (stereo not drawn)
inactive: [8] 0.0469 | [13] 0.0221 | [14] 0.107
active: [7] -0.364

COc1ccc(C(C)C(=O)c2ccc(O)cc2O)cc1 (stereo not drawn)
inactive: [1] 0.0783 | [2] 0.0339 | [3] 0.16 | [4] 0.123

CN1CCC(OC(c2ccccc2)c2ccccc2)CC1
inactive: [1] 0.0868 | [2] 0.234 | [3] 0.195 | [4] 0.162

CCC/C=C/C=C/C1CC(O)C(O)C(=O)C1C=O (stereo not drawn)
inactive: [1] -0.0508 | [2] 0.0579 | [3] 0.0447 | [4] 0.105

COc1ccc(/C=C/C(=O)O)cc1O
inactive: [1] 0.0659 | [2] -0.0174 | [3] 0.0725 | [4] 0.0415

Nc1ccc2c3c(cccc13)C(=O)NC2=O
active: [7] -0.219
inactive: [8] 0.0582 | [13] 0.0677 | [14] 0.123

Cn1cc(-c2ccc3nnc(Sc4ccc5ncccc5c4)n3n2)cn1
inactive: [5] -0.0487 | [6] -0.0471 | [9] -0.0137 | [10] -0.0296 | [11] -0.0417 | [12] -0.0286 | [15] 0.0315 | [16] 0.0177 | [17] 0.0194 | [18] 0.0197 | [19] -0.0534 | [20] 0.0875

C=C[C@H]1CN2CCC1C[C@H]2[C@H](O)c1ccnc2ccc(OC)cc12 (stereo partly drawn)
inactive: [5] 0.117 | [6] 0.0419 | [1] 0.0979 | [2] 0.0787 | [7] 0.301 | [8] 0.087 | [9] 0.0713 | [10] 0.119 | [11] 0.167 | [12] 0.0735 | [3] 0.173 | [4] 0.123 | [13] 0.178 | [14] 0.0152 | [15] 0.0946 | [16] 0.0541 | [17] 0.0987 | [18] 0.0369 | [19] 0.0679 | [20] 0.137
